Laboratory results taken from PubChem BioAssay AID463173 (ICCB-Longwood Screening Facility, Harvard Medical School, 2010).
About 1,700 (3.3%) of roughly 52,000 compounds were called active. Rule as the data show it: active = survival mostly below about 52% (no sharp cut-off); inactive = mostly above about 56%. Some of the results follow.

The compounds below were run on Wild type (assay: growth inhibition of S. aureus wild type versus tarO mutant, primary screen, teichoic acid synthesis inhibitors, RN4220, OD600 (AID 463173)). Settings: S. aureus RN4220 wild type/DeltatarO growth, OD600, 18 h, active compounds read low, screened at 18.75 µg/mL (by protocol).

| SMILES | survival |
| --- | --- |
| Cc1sc2ncn(CC(=O)N(C)c3cccc(C(F)(F)F)c3)c(=O)c2c1S(=O)(=O)N1CCN(c2ncccn2)CC1 | inactive: 148% |
| Cc1cc(=O)oc2c3c(ccc12)OCN(Cc1ccc(Cl)cc1)C3 | inactive: 65% |
| CCn1nc(C)c2c(-c3ccccc3)cc(=O)n(C(C)C(=O)NCCc3ccccc3)c21 (stereo unspecified) | inactive: 73% |
| CCc1nn2c(=O)cc(COC(=O)c3ccccc3NC(=O)c3cccs3)nc2s1 | inactive: 82% |
| O=C(CCn1ccc2cc(S(=O)(=O)N3CCCC3)ccc21)NCc1ccccc1Cl | active: 14% |
| O=C(NCCc1ccc(Cl)cc1)c1ccc2c(c1)N(Cc1cccc(Cl)c1)C(=O)c1ccccc1S2(=O)=O | inactive: 121% |
| Fc1ccccc1Nc1ncnc2c1nc1n2CCCCC1 | inactive: 74% |
| Cc1cccc(CCNC(=O)c2c[nH]c3ccc(S(=O)(=O)Nc4ccccc4F)cc3c2=O)c1 | inactive: 138% |
| COc1ccc(CNC(=O)C(OC(=O)c2ccc(Cl)nc2)c2ccccn2)cc1 (stereo unspecified) | inactive: 107% |
| COc1cccc(-c2nnc3sc(CN4CCCCC4)cn23)c1 | inactive: 68% |
| CCC1CCCCN1C(=O)Cn1c(=O)n(CCCCCC(=O)NCc2ccccc2Cl)c(=O)c2sccc21 (stereo unspecified) | inactive: 93% |
| COC(=O)c1ccc(NC(=O)CC2C(=O)N(c3cccc(C)c3)C(=O)N2C2CCCC2)cc1 (stereo unspecified) | inactive: 136% |
| O=C(CCCc1ccccc1)NCC1CCCO1 (stereo unspecified) | inactive: 107% |
| O=C(CSc1nc2ccccc2c(=O)[nH]1)NC1CCCC1 | inactive: 103% |
| O=C(CSc1cn(CCNC(=O)c2ccccc2F)c2ccccc12)Nc1ccc(F)cc1 | inactive: 64% |
| COc1cccc(N2C(=O)CSC23C(=O)N(CC(=O)Nc2cccc(Cl)c2)c2ccccc23)c1 (stereo unspecified) | inactive: 70% |
| CCCn1c(=O)c(C(=O)Nc2nccs2)c(O)c2ccccc21 | inactive: 97% |
| COc1cccc(-n2c(-c3ccco3)nc3c(cnn3-c3ccc(Cl)cc3)c2=O)c1 | inactive: 106% |
| CCn1c(C)c(C)c2cc(C(=O)N3CCN(c4cccc(C)c4C)CC3)ccc21 | inactive: 71% |

| SMILES | survival |
| --- | --- |
| COc1cc(CN(C(=O)COc2ccccc2Cl)c2ccccn2)cc(OC)c1OC | inactive: 94% |
| Cc1ccc(C(=O)CSc2ncn(-c3ccccc3)n2)c(C)c1 | inactive: 115% |
| CCC(=O)Nc1ccc2nc(SCc3ccccc3)sc2c1 | inactive: 74% |
| CCOc1ccc(-n2c(=O)c3c4c(sc3n(CC(=O)NC(C)CC)c2=O)CCC4)cc1 (stereo unspecified) | inactive: 130% |
| O=S(=O)(c1ccc(Cl)cc1)c1nnn2c1nc(NCc1cccs1)c1sccc12 | inactive: 75% |
| COc1ccc(CC(=O)Nc2cc(-c3nc4cccnc4s3)ccc2C)cc1 | inactive: 90% |
| CCOC(=O)c1ccc(N2C(=O)c3n[nH]c(-c4cccs4)c3C2c2cccc(OC)c2)cc1 (stereo unspecified) | inactive: 89% |
| CN(C)S(=O)(=O)N(CC(=O)NCCSCc1cccc(Cl)c1)c1ccccc1 | inactive: 76% |
| CCC(CC)C(=O)N1CCc2cc(OC)c(OC)cc2C1COc1ccc(C(=O)OC)cc1 (stereo unspecified) | inactive: 89% |
| COc1ccc(C)cc1NC(=O)CSc1nc(=O)[nH]c2c1CCCC2 | inactive: 128% |
| CCOc1ccc(-n2cc(-c3ccccc3)c3c(N4CCC(C)CC4)ncnc32)cc1 | inactive: 72% |
| CCOc1ccccc1NC(=O)C(=O)c1cc(C)n(-c2ccc(F)cc2)c1C | inactive: 113% |
| COc1ccc(-c2nnc(Nc3ccc(OC)c(C(N)=O)c3)c3ccccc23)cc1 | inactive: 67% |
| CCS(=O)(=O)c1nc(S(=O)(=O)c2ccc(C)cc2)c(NC(C)c2ccccc2)s1 (stereo unspecified) | inactive: 136% |
| O=C(NCc1ccccc1)NC1(C(=O)NCC2CCCO2)CCCCC1 (stereo unspecified) | inactive: 108% |
| Cc1ccc(Nc2c(-c3ccc(C)cc3)nc3ccc(C)cn23)cc1 | inactive: 121% |
| Cc1cc(C)cc(Nc2ncnc3onc(-c4ccc(F)cc4)c23)c1 | inactive: 82% |
| Cc1ccc(S(=O)(=O)c2nc(-c3ccc(F)cc3)oc2SCC(=O)c2ccccc2)cc1 | inactive: 69% |
| CCc1ccc2oc(-c3cccc(NC(=O)C(C)(C)Oc4ccc(Br)cc4)c3)nc2c1 | inactive: 21% |

| SMILES | survival |
| --- | --- |
| COc1cccc(-n2c(SCC(=O)N3CCCc4ccccc43)nc3c([nH]c4ccccc43)c2=O)c1 | inactive: 66% |
| CCc1ccc(S(=O)(=O)NCc2nc3cccnc3n2Cc2ccccc2Cl)cc1 | inactive: 83% |
| CCn1c(COc2ccc(C)cc2)nnc1SCC(=O)N1CCCc2ccccc21 | inactive: 123% |
| CCCOc1ccc(CNC(=O)Cn2cc3c(n2)-c2c(oc(C(=O)N4CCOCC4)c2C)CC3)cc1 | inactive: 96% |
| O=C(c1ccc2c(c1)CCCC2)N1CCN(c2nc3ccc(F)cc3s2)CC1 | inactive: 83% |
| CCOc1ccc(CNC(=O)c2cc3c(s2)-c2ccccc2OC3)cc1 | inactive: 91% |
| CC1(C)OC(c2ccncc2)OC1(C)C | inactive: 134% |
| COc1ccc(Cl)cc1NC(=O)Cn1c(=O)n(CCCC(=O)NCCc2ccc(OC)c(OC)c2)c(=O)c2ccccc21 | inactive: 79% |
| O=C(CCSCc1cccc(F)c1)NCc1ccccc1 | inactive: 86% |
| CCOc1ccc2nc(SCC(=O)N(C)C3CCCCC3)c(C#N)cc2c1 | inactive: 106% |
| CC(C)CNC(=O)C1CCN(S(=O)(=O)c2ccc(-n3cnnn3)cc2)CC1 | inactive: 110% |
| CCN1CCN(c2c(S(=O)(=O)c3ccc(Cl)cc3)cnc3ccccc23)CC1 | inactive: 82% |
| Cc1ccc(NC(=O)Cn2c(=O)n(CCCS(=O)(=O)C3CCCCC3)c(=O)c3ccccc32)cc1F | inactive: 84% |
| CC(NC(=O)c1ccc(Cn2c(=O)c3cccn3c3cccnc32)cc1)c1ccccc1 (stereo unspecified) | inactive: 108% |
| COc1ccc(S(=O)(=O)c2cc3cc(OC)ccc3oc2=O)cc1 | inactive: 76% |
| COC(=O)C1=NNC2C(=O)N(c3cc(C)cc(C)c3)C(=O)C12 (stereo unspecified) | inactive: 105% |
| CCc1ccccc1NC(=O)N1CCc2cc(OC)c(OC)cc2C1CC(=O)OC (stereo unspecified) | inactive: 127% |
| Cc1ccc(C)c(Nc2nc3c(S(=O)(=O)c4ccc(Br)cc4)nnn3c3ccsc23)c1 | inactive: 45% |
